The list shows a part of the results. One pool of 16,384 single-stranded DNAs met each Rep nickase domain in vitro at 3 µM enzyme and 37 °C for 1 h; the strands have 90 letters, of which the middle is given. Values are log2 of uncut reads against the no-enzyme pool; the lower, the more was cut; hits are not called. The scaling is to total reads; values above 0 arise when much of the pool is cut.
Tests used:
Experiment in all cases: uncleaved DNA left, log2 of reads against the no-enzyme library (log2 ratio); higher = less cleavage (more negative = more Rep cleavage of the k-mer); sequences stand for … in CTCGTCCG…ACCGGAGA
[1] = tested on: T1, Rep nickase domain of Muscovy duck circovirus
T1 sequence (residues 1-111, tag not shown): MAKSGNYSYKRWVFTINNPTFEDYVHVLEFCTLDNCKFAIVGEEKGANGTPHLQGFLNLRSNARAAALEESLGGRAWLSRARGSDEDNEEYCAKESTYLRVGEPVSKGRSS
Protocol: (§1)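 A pool of 90-nt single-stranded DNAs with seven random bases just before the constant AC of the nick site (name = the seven bases) was cut by 3 µM recombinant His6-SUMO-tagged Rep nickase domain (300 nM DNA, 50 mM HEPES pH 8.0, 50 mM NaCl, 1 mM MnCl2, 1 h, 37 °C, three replicates). Uncut DNA was amplified and sequenced.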

[2] = tested on: T2, Rep nickase domain of banana bunchy top virus
T2 sequence (residues 1-94, tag not shown): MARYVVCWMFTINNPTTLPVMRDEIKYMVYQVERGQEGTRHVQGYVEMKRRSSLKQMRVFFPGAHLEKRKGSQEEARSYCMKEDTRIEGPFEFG
Protocol: as §1

[3] = tested on: T3, Rep nickase domain of cabbage leaf curl virus
T3 sequence (residues 1-116, tag not shown): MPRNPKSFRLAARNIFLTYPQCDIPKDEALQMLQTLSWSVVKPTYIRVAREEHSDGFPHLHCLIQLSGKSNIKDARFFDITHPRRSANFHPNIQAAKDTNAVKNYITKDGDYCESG
Protocol: as §1

[4] = tested on: T4, Rep nickase domain of chickpea chlorotic dwarf virus
T4 sequence (residues 1-124, tag not shown): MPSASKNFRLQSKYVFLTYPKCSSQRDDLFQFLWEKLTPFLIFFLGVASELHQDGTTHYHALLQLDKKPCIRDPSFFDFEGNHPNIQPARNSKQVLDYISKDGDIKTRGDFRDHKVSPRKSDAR
Protocol: as §1

[5] = tested on: T5, Rep nickase domain of faba bean necrotic yellows virus
T5 sequence (residues 1-98, tag not shown): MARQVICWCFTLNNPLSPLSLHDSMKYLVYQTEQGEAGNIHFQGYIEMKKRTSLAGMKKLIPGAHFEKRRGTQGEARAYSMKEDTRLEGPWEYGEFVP
Protocol: as §1

[6] = tested on: T6, Rep nickase domain of maize striate mosaic virus
T6 sequence (residues 1-117, tag not shown): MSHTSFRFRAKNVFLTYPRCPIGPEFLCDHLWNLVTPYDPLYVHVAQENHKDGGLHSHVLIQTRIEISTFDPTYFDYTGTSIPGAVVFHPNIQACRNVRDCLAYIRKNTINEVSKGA
Protocol: as §1

[7] = tested on: T7, Rep nickase domain of porcine circovirus 2
T7 sequence (residues 2-116, tag not shown): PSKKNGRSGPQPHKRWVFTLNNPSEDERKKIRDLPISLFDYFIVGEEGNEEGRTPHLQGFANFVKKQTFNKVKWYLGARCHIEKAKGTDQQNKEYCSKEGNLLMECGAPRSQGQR
Protocol: as §1

[8] = tested on: T8, Rep nickase domain of tomato golden mosaic virus
T8 sequence (residues 1-124, tag not shown): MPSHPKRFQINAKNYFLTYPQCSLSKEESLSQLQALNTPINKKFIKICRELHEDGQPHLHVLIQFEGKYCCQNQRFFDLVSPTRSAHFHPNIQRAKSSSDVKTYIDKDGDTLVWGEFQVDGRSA
Protocol: as §1

[9] = tested on: T9, Rep nickase domain of tomato yellow leaf curl virus
T9 sequence (residues 1-136, tag not shown): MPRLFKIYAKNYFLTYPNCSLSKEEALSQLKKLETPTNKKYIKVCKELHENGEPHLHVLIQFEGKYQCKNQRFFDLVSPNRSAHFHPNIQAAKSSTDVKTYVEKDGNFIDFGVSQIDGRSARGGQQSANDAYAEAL
Protocol: as §1

[10] = tested on: T10, Rep nickase domain of wheat dwarf virus
T10 sequence (residues 1-137, tag not shown): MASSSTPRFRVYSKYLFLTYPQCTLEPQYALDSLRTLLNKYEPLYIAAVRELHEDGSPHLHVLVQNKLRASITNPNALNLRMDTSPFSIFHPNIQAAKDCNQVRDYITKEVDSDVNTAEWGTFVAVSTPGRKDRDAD
Protocol: as §1

| Sequence | uncleaved DNA left (log2) [1] | uncleaved DNA left (log2) [2] | uncleaved DNA left (log2) [3] | uncleaved DNA left (log2) [4] | uncleaved DNA left (log2) [5] | uncleaved DNA left (log2) [6] | uncleaved DNA left (log2) [7] | uncleaved DNA left (log2) [8] | uncleaved DNA left (log2) [9] | uncleaved DNA left (log2) [10] |
| --- | --- | --- | --- | --- | --- | --- | --- | --- | --- | --- |
| CCATGGC | -0.0932 | -0.178 | -0.825 | -0.7 | -0.17 | -1.12 | 0.0252 | -0.105 | 0.0782 | -0.22 |
| CAAGCCT | -0.104 | -0.245 | -0.986 | -2.71 | -0.13 | -0.497 | -0.277 | -0.261 | -0.209 | -0.215 |
| AGCCCTG | 0.137 | 0.197 | 0.258 | 0.826 | 0.17 | 1.84 | 0.122 | 0.223 | 0.0861 | 0.223 |
| TTAGCAA | 0.0633 | 0.0754 | 0.199 | 1.01 | -0.0748 | -0.107 | -0.00592 | 0.0526 | 0.0517 | 0.168 |
| CGTGTAG | -0.131 | -0.149 | -0.698 | -0.482 | -0.00516 | -1 | -0.0498 | -0.119 | 0.0164 | -0.219 |
| CTATGTG | -0.0272 | 0.0337 | -0.773 | -0.082 | 0.198 | -1.03 | 0.189 | 0.143 | 0.0757 | -0.2 |
| AAGCCAA | -0.0416 | -0.0197 | 0.0996 | -0.447 | -0.0625 | -0.196 | -0.103 | -0.0158 | -0.0281 | 0.0859 |
| GGCCCGC | 0.125 | 0.0927 | 0.319 | 0.991 | 0.0374 | 1.49 | 0.0976 | 0.0327 | 0.0192 | 0.138 |
| TACCTGC | -0.051 | -0.0887 | -0.583 | -1.15 | -0.112 | -1.07 | -0.354 | -0.192 | -0.0984 | -0.203 |
| CGTATCT | 0.116 | 0.149 | 0.172 | -1.12 | 0.183 | 0.0698 | -0.926 | 0.11 | 0.218 | 0.195 |
| TGCTACC | -2.52 | -0.154 | -2.15 | -1.96 | -0.93 | -0.304 | -3.06 | -1.34 | -0.139 | -2.14 |
| AATGGTT | 0.096 | 0.0575 | 0.464 | 1.78 | 0.00543 | 1.96 | -0.00585 | 0.172 | -0.0886 | 0.0832 |
| GGGAGCT | -0.0352 | 0.0152 | 0.784 | 1.89 | -0.0438 | 2.16 | 0.0706 | -0.125 | -0.111 | 0.173 |
| AACGTAA | -0.0904 | -0.0772 | -0.214 | -0.659 | -0.168 | -0.451 | -0.00326 | -0.104 | -0.138 | -0.165 |
| CGGCTCG | -0.00701 | 0.184 | -0.0546 | 0.171 | 0.0675 | 0.159 | 0.0981 | 0.115 | -0.0377 | 0.144 |
| GCACTCC | 0.00726 | -0.0179 | -0.0345 | 0.363 | 0.0119 | 1.06 | 0.032 | -0.068 | -0.0694 | 0.0803 |
| GCACACT | 0.00484 | -0.0537 | -0.224 | -1.94 | -0.0513 | -0.147 | -0.0414 | -0.102 | -0.0587 | 0.00267 |
| ATGGATC | -0.0884 | -0.0407 | 0.161 | 1.17 | 0.0656 | 1.19 | 0.261 | 0.0345 | -0.0751 | -0.0167 |
| CTATTGT | -0.316 | -0.032 | -0.769 | -0.904 | 0.0493 | -1.24 | -0.427 | -0.0537 | -0.0243 | -0.05 |
| TAATTGT | -3.77 | -0.289 | -4.2 | -3.3 | -0.0643 | -3.95 | -3.98 | -4.17 | -0.938 | -3.96 |
| ACATACC | -0.154 | 0.0423 | -0.154 | -0.811 | -0.00192 | -0.652 | -0.657 | -0.0453 | -0.158 | -0.0861 |
| TCACGAT | -0.0875 | -0.0225 | -0.0331 | -0.585 | -0.102 | 0.37 | -0.127 | -0.0367 | -0.161 | -0.0308 |
| CAAAACA | -0.0196 | 0.0663 | -0.541 | -2.35 | 0.11 | -0.926 | 0.0509 | 0.00873 | -0.0899 | -0.015 |
| GATACCC | 0.0227 | 0.0507 | 0.183 | 0.566 | 0.0154 | 0.493 | 0.0738 | 0.028 | 0.0713 | 0.108 |
| AAGTTCG | 0.0107 | 0.0216 | -0.667 | -0.291 | 0.00201 | -1.19 | 0.042 | 0.0746 | 0.0608 | -0.105 |
| CAATGAT | -0.797 | -0.0719 | -3.67 | -2.75 | 0.065 | -2.43 | -3.62 | -3.53 | -0.111 | -3.35 |
| AATTATA | -2.69 | -0.784 | -0.227 | -2.85 | 0.0489 | -0.75 | -2.59 | 0.0426 | 0.0739 | -0.0366 |
| TGTCCCC | -0.0559 | 0.0107 | 0.449 | 1.31 | -0.0921 | 1.43 | -0.465 | 0.0434 | 0.101 | 0.0372 |
| GTTCCTT | 0.0948 | 0.238 | 0.37 | 0.848 | 0.0402 | 1.78 | 0.165 | 0.188 | 0.134 | 0.237 |

— the supplement of paper PMC7826260
